Reference: PubChem BioAssay AID504832 (National Center for Advancing Translational Sciences (NCATS), 2011)
Screen size: about 310,000 compounds; about 18,000 (5.8%) were called active. The shares of active, inactive and inconclusive entries below differ from those in the screen. The call rests on the fitted dose curve; in most records, active means well fitted inhibition curve with a large enough effect; inconclusive means small, poorly fitted or top-dose-only effect, or another doubt; inactive means no such curve, though single readings can be large or run the other way. Potencies of inconclusive entries are left out as doubtful fits.

experiment: Primary qHTS for delayed death inhibitors of the malarial parasite plastid, 48 hour incubation; settings: P. falciparum luciferase growth in erythrocytes; series mostly up to 28.7 µM; activity change, negative = inhibition: at the top concentration
Procedure, shortened: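 Firefly luciferase activity from engineered P. falciparum reports growth; inhibitors lower the luminescent signal. Cultures contained 2% hematocrit erythrocytes at 0.1% final parasitemia.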
On the % scale 0 is the no-effect control and ±100 the full control effect; potency means the concentration at half of the fitted maximal effect; tags describe the fitted curve by direction and shape.

Q: For COc1ccc(OC)c(-c2nnc(SCC(=O)N3CCCc4ccccc43)o2)c1, which Potency is on record?
A: inconclusive [inhibitor, single point]

Q: With CCOc1ccc(NC(=O)CSc2ccc(-c3ccccn3)nn2)cc1 as the molecule, how does the Potency read?
A: inconclusive [inhibitor, single point]

Q: For COc1ccc2c(c1)sc(=N)n2CC(=O)Nc1cc(C)cc(C)c1, which Potency is on record?
A: inconclusive [inhibitor, single point]

Q: For O=c1c2oc3ccccc3c2ncn1Cc1ccccc1Cl, which Potency is on record?
A: inconclusive [inhibitor, single point]

Q: Which Potency does the source give for CC(C)(C)c1ccc(C(=O)NCc2nnc(SCC(=O)N3CCCc4ccccc43)n2-c2ccccc2)cc1 here?
A: inconclusive [inhibitor, partial curve]

Q: For CCCn1c(SCC(=O)N2CCN(C(=O)c3ccco3)CC2)nc2ccccc2c1=O, which “activity change, negative = inhibition” value is on record?
A: inactive: -28.2%

Q: With CCN1CCN(c2ccc(NC(=O)c3ccc4c(c3)[nH]c(=O)n4Cc3ccc(F)cc3)cc2)CC1 as the molecule, how does the Potency read?
A: active: 7.38 µM

Q: Which Potency does the source give for CCn1cc(/C=N\NC(=O)c2cc(-c3ccccc3OC)nc3ccccc23)c(C)n1 here?
A: active: 1.65 µM

Q: Which Potency does the source give for CN(Cc1ccc(Cl)c(Cl)c1)C(=O)C1=CC=CN2CCS(=O)(=O)N=C12 here?
A: active: 9.28 µM

Q: For CCCNCC1C(Oc2ccc(Cl)cc2Cl)C(=O)N1c1cccc(C)c1C (stereo unspecified), which Potency is on record?
A: inconclusive [inhibitor, partial curve]

Q: With CSc1nc2[nH]c3c(c2c2nnnn12)CCCC3 as the molecule, how does the Potency read?
A: inconclusive [inhibitor, single point]

Q: For CCCc1cc(-c2nc(N)ncc2-c2csc(C)n2)c(O)cc1OC, which Potency is on record?
A: inconclusive [inhibitor, partial curve, poor fit]

Q: Which Potency does the source give for C/C(=N\NC(=O)C1CC1)c1ccc(C(C)(C)C)cc1 here?
A: inconclusive [inhibitor, partial curve]

Q: With C=CCn1c(O)c(N=NC(=S)Nc2ccc(OC)cc2)c2ccccc21 as the molecule, how does the Potency read?
A: active: 10.4 µM

Q: With NC(=O)c1c(NC(=O)C2COc3ccccc3O2)sc2c1CCN(Cc1ccccc1)C2 (stereo unspecified) as the molecule, how does the “activity change, negative = inhibition” value read?
A: inactive: -14.5%

Q: Which Potency does the source give for COc1ccccc1C(=O)NC(CCSC)C(=O)N1CCC(Cc2ccccc2)CC1 (stereo unspecified) here?
A: active: 14.7 µM

Q: For CC(=O)Cn1ncc(Br)c(Br)c1=O, which Potency is on record?
A: inconclusive [inhibitor, partial curve]

Q: For Cc1cccc(NC(=O)c2ccc(C(=O)c3ccccc3)cc2)n1, which “activity change, negative = inhibition” value is on record?
A: inactive: 87.6%

Q: For COc1cc(-c2nnc(COC(=O)CSc3cc(C)c4ccccc4n3)o2)cc(OC)c1OC, which Potency is on record?
A: inconclusive [inhibitor, single point]

Q: For COc1ccc(Cc2noc(CN3CCN(Cc4cccc(Cl)c4)CC3)n2)cc1OC, which Potency is on record?
A: inconclusive [inhibitor, partial curve, poor fit]

Q: For CN1C(=O)CC(c2cn(Cc3ccccc3)c3ccccc23)C1=O (stereo unspecified), which Potency is on record?
A: inconclusive [inhibitor, partial curve]

Q: Which Potency does the source give for CC(=O)c1ccc(S(=O)(=O)NCCc2csc(-c3cccnc3)n2)cc1 here?
A: inconclusive [inhibitor, partial curve]

Q: With CCOc1ccccc1OCC(=O)Nc1ccc(N2CCOCC2)cc1N1CCOCC1 as the molecule, how does the Potency read?
A: inconclusive [inhibitor, single point]

Q: With Oc1ccc(N2CCN(c3ncnc4sc5c(c34)CCC5)CC2)cc1 as the molecule, how does the Potency read?
A: inconclusive [inhibitor, single point]

Q: With CCc1cc2c(SCC(=O)N3CC(=O)Nc4ccccc43)ncnc2s1 as the molecule, how does the Potency read?
A: inconclusive [inhibitor, single point]

Q: For CCOC(=O)c1cc(C#N)c(SC)nc1-c1ccccc1, which Potency is on record?
A: inconclusive [inhibitor, partial curve]

Q: Which “activity change, negative = inhibition” value does the source give for COc1ccc(CC(=O)NNC(=O)CSc2ccc(C)cc2)cc1 here?
A: inactive: 17.6%

Q: With Cc1cc(NC(=O)CCC(=O)N(c2cccc(F)c2)C(C(=O)NC2CCCC2)c2ccccc2)no1 (stereo unspecified) as the molecule, how does the Potency read?
A: inconclusive [inhibitor, partial curve, poor fit]

Q: Which Potency does the source give for S=C(Nc1ccccn1)c1ccccn1 here?
A: inconclusive [inhibitor, single point]

Q: Which “activity change, negative = inhibition” value does the source give for COC(=O)[C@H](Cc1c[nH]c2ccccc12)NC(=O)NCc1ccc(OC)cc1 here?
A: inactive: 21.3%

Q: For Cc1cc(Br)ccc1SCC(=O)OCC(=O)Nc1ccccc1C#N, which “activity change, negative = inhibition” value is on record?
A: inactive: 13.8%

Q: For Cc1ccc2c(C)nc(Nc3nc(CSc4nnnn4-c4ccccc4)cc(=O)[nH]3)nc2c1, which Potency is on record?
A: active: 2.33 µM

Q: For COc1ccc(C(=O)CN2C(=O)NC3(CCCc4ccccc43)C2=O)cc1 (stereo unspecified), which Potency is on record?
A: inconclusive [inhibitor, single point]

Q: Which “activity change, negative = inhibition” value does the source give for Cc1csc(=O)n1CCC(=O)OCC(=O)Nc1cccc(C#N)c1 here?
A: inactive: 12.9%

Q: For CN1C2CCC1C(COC(=O)c1ccccc1)C(O)C2 (stereo unspecified), which Potency is on record?
A: inconclusive [inhibitor, single point]

Q: Which “activity change, negative = inhibition” value does the source give for COCCn1c(SCC(=O)Nc2cc(C)on2)nnc1-c1ccccc1 here?
A: inactive: 26.4%

Q: Which “activity change, negative = inhibition” value does the source give for O=C(NC(=S)Nc1ccc2ncccc2c1)c1ccccc1 here?
A: inactive: 312%

Q: For CCn1c(SCC(=O)NCc2ccccc2)nnc1-c1c[nH]c2ccccc12, which “activity change, negative = inhibition” value is on record?
A: inactive: -22.2%

Q: For CCCn1c(C(C)Nc2nc(-c3ccc(Cl)c([N+](=O)[O-])c3)cs2)nc2ccccc21 (stereo unspecified), which Potency is on record?
A: active: 13.1 µM

Q: Which “activity change, negative = inhibition” value does the source give for CCNC(=O)C12CCC(C)(C(=O)O1)C2(C)C (stereo unspecified) here?
A: inactive: 16.9%

Q: Which Potency does the source give for COc1ccccc1NC(=S)N1CCN(c2cccc(C)c2C)CC1 here?
A: inconclusive [inhibitor, single point]

Q: With Cc1cccc(N(CC(=O)NC2CCCC2)C(=O)CS(=O)CC(=O)Nc2ccc3c(c2)OCO3)c1C (stereo unspecified) as the molecule, how does the Potency read?
A: inconclusive [inhibitor, single point]

Q: Which Potency does the source give for COc1cccc(N(CC(=O)NC2CCCCC2)C(=O)c2snc(C(N)=O)c2N)c1 here?
A: inconclusive [inhibitor, single point]

Q: Which “activity change, negative = inhibition” value does the source give for O=C(Cn1cnc2ccccc2c1=O)Nc1cccc(S(=O)(=O)N2CCCCC2)c1 here?
A: inactive: -10.9%

Q: With Cc1ccc(S(=O)(=O)Nc2nc3ccccc3nc2Nc2cccc(S(=O)(=O)N3CCCC3)c2)cc1 as the molecule, how does the Potency read?
A: inconclusive [inhibitor, partial curve]

Q: For CCCCn1c(N)c(N(CC(C)C)C(=O)CSc2nnc(C)n2-c2ccc(OC)cc2)c(=O)[nH]c1=O, which Potency is on record?
A: inconclusive [inhibitor, single point]

Q: For CC1CN(C(=O)CCC(=O)N2CCN(c3cccc(C(F)(F)F)c3)CC2)c2ccccc2O1 (stereo unspecified), which Potency is on record?
A: inconclusive [inhibitor, partial curve, poor fit]

Q: For Cc1ncoc1C(=O)N1CCCC(C(=O)c2ccc(Oc3ccccc3)cc2)C1 (stereo unspecified), which Potency is on record?
A: inconclusive [inhibitor, full curve, poor fit]

Q: For O=[N+]([O-])c1ccc2nc(NCCCO)nc(-c3ccccc3)c2c1, which Potency is on record?
A: inconclusive [inhibitor, single point]

Q: Which “activity change, negative = inhibition” value does the source give for COc1ccccc1NC(=O)CSc1nnc(CCC(=O)Nc2ccccc2F)n1C here?
A: inactive: 0.128%

Q: For COC(=O)CCCC1=CC2=C(c3ccccc3)C(=O)C(C)(OC(=O)C3CCCC3)C(=O)C2=CN1CCN1CCOCC1 (stereo unspecified), which Potency is on record?
A: inconclusive [inhibitor, partial curve]

Q: With COc1c(/C=N/NC(N)=S)c(C)nn1-c1ccccc1 as the molecule, how does the “activity change, negative = inhibition” value read?
A: inactive: 12.2%

Q: For CCCCn1c(NCc2ccncc2)nc2ccccc21, which Potency is on record?
A: inconclusive [inhibitor, single point]

Q: With CCc1ccccc1Nc1nn2c(=O)c3ccc(C(=O)NCc4ccccn4)cc3nc2s1 as the molecule, how does the Potency read?
A: inconclusive [inhibitor, partial curve]

Q: Which Potency does the source give for O=C1CCc2cc(S(=O)(=O)Nc3ccccc3)cc3c2N1CC3 here?
A: inconclusive [inhibitor, partial curve, poor fit]

Q: Which “activity change, negative = inhibition” value does the source give for Cn1ccc(C(=O)N/N=C/c2ccccc2[N+](=O)[O-])n1 here?
A: inactive: 93.4%

Q: For COCCN1CN=C(Nc2nc(C)c3ccc(C)cc3n2)NC1, which Potency is on record?
A: active: 2.08 µM

Q: Which “activity change, negative = inhibition” value does the source give for CN1Cc2ccccc2CC1CNCc1c(C(=O)N2CCCC2)nc2ccccn12 (stereo unspecified) here?
A: inactive: 3.23%

Q: For Nc1ccc2nc(-c3cccc(-c4nc5ccc(N)cc5[nH]4)c3)[nH]c2c1, which Potency is on record?
A: active: 1.85 µM

Q: For Cc1cccc(N(CC(=O)NC2CCCC2)C(=O)c2nsc(Cl)c2Cl)c1C, which Potency is on record?
A: inconclusive [inhibitor, partial curve, poor fit]

Q: Which “activity change, negative = inhibition” value does the source give for Cc1cc(C(=O)Nc2c(F)cc(F)cc2Br)no1 here?
A: inactive: 21.6%

Q: For CCN(CC)CCOC(=O)c1ccc(NC(=O)/C=C/c2cccs2)cc1, which Potency is on record?
A: inconclusive [inhibitor, single point]

Q: Which Potency does the source give for CCOC(=O)c1nn(-c2ccccc2)c(=O)cc1OCC(=O)Nc1cc(C)ccc1C here?
A: inconclusive [inhibitor, single point]

Q: With O=C(CCCN1C(=O)/C(=C/c2cccc(Br)c2)SC1=S)Nc1ccccn1 as the molecule, how does the Potency read?
A: inconclusive [inhibitor, single point]

Q: For NC(=O)c1nsc(C(=O)N(CC(=O)NC2CCCCC2)Cc2ccc(F)cc2)c1N, which “activity change, negative = inhibition” value is on record?
A: inactive: 35.6%

Q: With N/N=C(/Cc1nc2ccccc2[nH]1)c1ccc([N+](=O)[O-])cc1 as the molecule, how does the Potency read?
A: inconclusive [inhibitor, single point]

Q: For CCCCn1c(=O)c(C(=O)NCc2ccccc2OC)c(O)c2ccccc21, which Potency is on record?
A: inconclusive [inhibitor, single point]

Q: With O=C(Nc1ccc(F)cc1F)NC1CCCCCCC1 as the molecule, how does the “activity change, negative = inhibition” value read?
A: inactive: 65.7%

Q: Which “activity change, negative = inhibition” value does the source give for Cc1ccc(C2=NN(C(=O)CSc3nc4ncc(Cl)cc4[nH]3)C(c3ccco3)C2)cc1 (stereo unspecified) here?
A: inactive: -13.1%

Q: Which “activity change, negative = inhibition” value does the source give for CCCCOC(=O)N1CCOCCOCCOCC1 here?
A: inactive: 31.8%

Q: Which Potency does the source give for CCOC(=O)N1CCN(C(=O)COCc2cc(-c3ccc4c(c3)OCO4)on2)CC1 here?
A: inconclusive [inhibitor, single point]
